Measurements taken from a collection of fitness landscapes (doi:10.1016/j.celrep.2020.107928).
Whole data set: some 81,000 sequences, median “one-hybrid fitness for binding parS DNA” near -0.17, cut for the highest 2% near 0.51. This is one part of the list.

B1: Caulobacter ParB omega fusion; a variant is named by its letters at X, in order, B8GW30 (parent)
chain: MESVVVGEPGMSEGRRGLGRGLSALLGEVDAAPAQAPGEQLGGSREAPIEILQRNPDQPRRTFREEDLEDLSNSIREKGVLQPILVRPSPDTAGEYQIVAGERAWRAAQRAGLKTVPIMVRELDDLAVLEIGIIENVQRADLNVLEEALSYKVLMEKFERTQENIAQTIGKSXSHVANXMRLLXLPDEVQSYLVSGELTAXHARAIAAAADPVALAKQIIEGGLSVRETEALARKAPNLSAGKSKGGRPPRVKDTDTQALESDLSSVLGLDVSIDHRGSTGTLTITYATLEQLDDLCNRLTRGI

Variants of: B1
Test: one-hybrid fitness for binding parS DNA (scaled: cognate 1, non-cognate 0); higher = stronger binding
Conditions: with parS DNA site
In short: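 Values were rescaled so that cognate is 1 and non-cognate is 0. Each is a fitness, the log change in a variant's read ratio to wild type from Illumina reads of plasmids before and after selection, with three replicate libraries pooled and variants under 10 reads dropped. Selection of the Caulobacter ParB libraries, four specificity codons randomised, used E. coli USO with a HIS3 reporter, site 19 bp from the promoter, on M9-minus-histidine with 0.1 mM IPTG and 5 mM 3-AT for 48 hours at 37°C.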

Point of comparison: VFES, “one-hybrid fitness for binding parS DNA” value 0.227. Against it:
- RAQD — lower, ≤ 0.2
- PGPK — lower, ≤ 0.2
- IEAL — lower, ≤ 0.2
- WMHT — lower, ≤ 0.2
- QGRT — lower, ≤ 0.2
- SSDY — lower, ≤ 0.2
- LNYF — lower, ≤ 0.2
- KRWK — lower, ≤ 0.2
- LIIE — lower, ≤ 0.2
- WIIC — lower, ≤ 0.2
- SHQT — lower, ≤ 0.2
- PPAI — lower, ≤ 0.2
- TATQ — lower, ≤ 0.2
- CQQR — lower, ≤ 0.2
- PARC — lower, ≤ 0.2
- QSCR — lower, ≤ 0.2
- EMQR — lower, ≤ 0.2
- CYST — lower, ≤ 0.2
- ATLN — lower, ≤ 0.2
- CNCY — lower, ≤ 0.2
- DPPY — lower, ≤ 0.2
- WTWC — lower, ≤ 0.2
- FQTK — lower, ≤ 0.2
- ADQC — lower, ≤ 0.2
- NRYA — lower, ≤ 0.2
- ESHK — lower, ≤ 0.2
- EING — lower, ≤ 0.2
- VVER — lower, ≤ 0.2
- PETN — lower, ≤ 0.2
- LDTI — lower, ≤ 0.2
- GLFN — lower, ≤ 0.2
- SADC — lower, ≤ 0.2
- RHYA — higher, 0.562
- LPKA — lower, ≤ 0.2
- PEPR — lower, ≤ 0.2
- VSET — lower, ≤ 0.2
- QPAS — lower, ≤ 0.2
- KCRY — lower, ≤ 0.2
- RCTG — higher, 1.02
- EAPS — lower, ≤ 0.2
- MHFS — lower, ≤ 0.2
- GMNS — lower, ≤ 0.2
- GHVQ — lower, ≤ 0.2
- LMPC — lower, ≤ 0.2
- GMSW — lower, ≤ 0.2
- LDYC — lower, ≤ 0.2
- ALEF — lower, ≤ 0.2
- RYVQ — lower, ≤ 0.2
- PAHG — lower, ≤ 0.2
- MMVR — lower, ≤ 0.2
- RNVP — lower, ≤ 0.2
- EYSK — lower, ≤ 0.2
- QDHQ — lower, ≤ 0.2
- VQTM — lower, ≤ 0.2
- TDGG — lower, ≤ 0.2
- SNTF — lower, ≤ 0.2
- IRVA — lower, ≤ 0.2
- WMTL — lower, ≤ 0.2
- QIQR — lower, ≤ 0.2
- DTHC — lower, ≤ 0.2
- LLWG — lower, ≤ 0.2
- KAAT — lower, ≤ 0.2
- MEPF — lower, ≤ 0.2
- VSTS — lower, ≤ 0.2
- EMER — lower, ≤ 0.2
- TSKA — lower, ≤ 0.2
- IDAR — lower, ≤ 0.2
- CALV — lower, ≤ 0.2
- MPCI — lower, ≤ 0.2
- TAAC — lower, ≤ 0.2
- PCMY — lower, ≤ 0.2
- AEIG — lower, ≤ 0.2
- LRNF — lower, ≤ 0.2
- AYWC — lower, ≤ 0.2
- IHGV — lower, ≤ 0.2
- NFPA — lower, ≤ 0.2
- TGES — lower, ≤ 0.2
- MLPR — lower, ≤ 0.2
- RCWE — lower, ≤ 0.2
- AKKR — lower, ≤ 0.2
- NIVP — lower, ≤ 0.2
- PYVY — lower, ≤ 0.2
- ELIR — lower, ≤ 0.2
- CSKR — lower, ≤ 0.2
- YRVE — lower, ≤ 0.2
- AYSY — lower, ≤ 0.2
- IIGR — lower, ≤ 0.2
- DGRG — lower, ≤ 0.2
- ISAD — lower, ≤ 0.2
- MANS — lower, ≤ 0.2
- QRHT — lower, ≤ 0.2
- KLTK — lower, ≤ 0.2
- LQQC — lower, ≤ 0.2
- RRCF — lower, ≤ 0.2
- QSEF — lower, ≤ 0.2
- CTDL — lower, ≤ 0.2
- KWSH — lower, ≤ 0.2
- LMAV — lower, ≤ 0.2
- LRGE — lower, ≤ 0.2
- CNWR — lower, ≤ 0.2
- HAFM — lower, ≤ 0.2
- ELDG — lower, ≤ 0.2
- NKDW — lower, ≤ 0.2
- QVQL — lower, ≤ 0.2
- PECS — lower, ≤ 0.2
- DVQT — lower, ≤ 0.2
- ELGT — lower, ≤ 0.2
- PSSP — lower, ≤ 0.2
- LPDA — lower, ≤ 0.2
- RLTQ — lower, ≤ 0.2
- SHMY — lower, ≤ 0.2
- LPKM — lower, ≤ 0.2
- KTTD — lower, ≤ 0.2
- MVTC — lower, ≤ 0.2
- TVDF — lower, ≤ 0.2
- SRNR — lower, ≤ 0.2
- LAHL — lower, ≤ 0.2
- LYTP — lower, ≤ 0.2
- PHPF — lower, ≤ 0.2
- EHLC — lower, ≤ 0.2
- AWTG — lower, ≤ 0.2
- HAFC — lower, ≤ 0.2
- RHHI — lower, ≤ 0.2
- RHTV — lower, ≤ 0.2
- TGQW — lower, ≤ 0.2
- HCNR — lower, ≤ 0.2
- LNAT — lower, ≤ 0.2
- KINS — lower, ≤ 0.2
- QWEV — lower, ≤ 0.2
- MTIG — lower, ≤ 0.2
- QPRL — lower, ≤ 0.2
- REPM — lower, ≤ 0.2
- EGTC — lower, ≤ 0.2
- YPDC — lower, ≤ 0.2
- ILGW — lower, ≤ 0.2
- AINF — lower, ≤ 0.2
- KAKN — lower, ≤ 0.2
- HMST — lower, ≤ 0.2
- RLKR — lower, ≤ 0.2
- VFKT — lower, ≤ 0.2
- WFNC — higher, 0.25
- PSGF — lower, ≤ 0.2
- YCVS — lower, ≤ 0.2
- LMTY — lower, ≤ 0.2
- WCLW — lower, ≤ 0.2
- IYEG — lower, ≤ 0.2
- LIEG — lower, ≤ 0.2
- KCAV — lower, ≤ 0.2
- VISV — lower, ≤ 0.2
- GMQY — lower, ≤ 0.2
- AGFG — lower, ≤ 0.2
- QKKK — lower, ≤ 0.2
